The values that follow come from PMC4336329 (PLoS ONE, 2015).

In all, about 310,000 compounds went through this assay and about 2,200 (0.71%) showed an effect of 50% or more. Effects have a minus sign here. The list shows a part of the results.

The target of the experiment is human ether-à-go-go-related gene (hERG) potassium channel (human, UniProt Q12809). In words: primary screen, population patch clamp on CHO cells stably expressing hERG.
human ether-à-go-go-related gene (hERG) potassium channel, sequence (Q12809 whole entry, looked up): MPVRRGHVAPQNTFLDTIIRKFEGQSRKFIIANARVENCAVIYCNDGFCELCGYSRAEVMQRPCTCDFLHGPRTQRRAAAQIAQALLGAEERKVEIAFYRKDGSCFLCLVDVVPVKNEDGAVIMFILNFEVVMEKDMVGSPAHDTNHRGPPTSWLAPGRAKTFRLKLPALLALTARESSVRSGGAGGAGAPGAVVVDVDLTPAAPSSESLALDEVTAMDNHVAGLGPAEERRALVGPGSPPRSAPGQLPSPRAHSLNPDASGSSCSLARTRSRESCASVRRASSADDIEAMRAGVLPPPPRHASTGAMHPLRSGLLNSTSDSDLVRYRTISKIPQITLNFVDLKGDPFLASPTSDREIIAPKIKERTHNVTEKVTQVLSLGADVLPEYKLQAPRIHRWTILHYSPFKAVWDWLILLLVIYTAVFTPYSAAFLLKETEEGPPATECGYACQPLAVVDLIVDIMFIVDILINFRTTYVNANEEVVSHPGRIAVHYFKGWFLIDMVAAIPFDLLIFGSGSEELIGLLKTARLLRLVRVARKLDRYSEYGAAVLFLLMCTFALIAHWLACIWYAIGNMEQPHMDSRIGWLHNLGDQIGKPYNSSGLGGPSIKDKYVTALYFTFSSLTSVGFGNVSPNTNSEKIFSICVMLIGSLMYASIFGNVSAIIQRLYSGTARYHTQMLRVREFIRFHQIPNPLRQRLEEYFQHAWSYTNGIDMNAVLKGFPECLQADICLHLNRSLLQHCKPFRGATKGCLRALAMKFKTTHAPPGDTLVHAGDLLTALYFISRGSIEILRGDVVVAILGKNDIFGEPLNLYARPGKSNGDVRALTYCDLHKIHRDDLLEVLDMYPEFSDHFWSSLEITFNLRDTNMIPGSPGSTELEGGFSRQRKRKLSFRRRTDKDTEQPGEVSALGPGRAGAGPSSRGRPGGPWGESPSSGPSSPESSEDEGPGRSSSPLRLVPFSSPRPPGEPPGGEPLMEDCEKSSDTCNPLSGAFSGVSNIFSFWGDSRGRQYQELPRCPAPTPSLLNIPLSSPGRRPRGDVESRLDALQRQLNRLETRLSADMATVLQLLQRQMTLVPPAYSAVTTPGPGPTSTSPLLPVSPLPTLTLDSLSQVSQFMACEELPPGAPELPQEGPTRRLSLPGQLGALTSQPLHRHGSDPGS
For the molecule `COc1ccc(NC(=O)N2C[C@@H]3C[C@@H](C2)c2cccc(=O)n2C3)cc1`, the “hERG current change (%, negative = inhibition) at 1uM” value was 10.9%. For `Cc1ccc(S(=O)(=O)N(CC(=O)c2ccc(Cl)cc2)C(=O)N2CCN(C)CC2)cc1` the value was 17%; for `Cl.N=c1ccn(Cc2ccc(F)cc2)cc1`, 15%.

Turning to `CCCCC(=O)Nc1nnc(S(=O)(=O)N(CC)c2ccccc2)s1`, the “hERG current change (%, negative = inhibition) at 1uM” value is recorded as 19%. Consider `COC(=O)CN1C(=O)Nc2ccc(Br)cc2C1c1ccccc1` (stereo not drawn), for which the “hERG current change (%, negative = inhibition) at 1uM” value is recorded as 10.2%.

In the case of `COC(=O)c1ccc(CNC(=O)N2CCN(S(=O)(=O)c3ccc(C)cc3)CC2)cc1`, the “hERG current change (%, negative = inhibition) at 1uM” value is listed as 15.7%. For `COc1ccc2c(c1)C(=O)N(c1ccc(C)cc1)C(=O)C2` the value was 14.1%. For `O=C(NCCN1CCOCC1)c1ccc(Cl)c(S(=O)(=O)N2CCOCC2)c1` the value was 11.7%. On to `Cn1ncc2c(N3CCN(c4ccccc4F)CC3)ncnc21`, for which the “hERG current change (%, negative = inhibition) at 1uM” value came to 11.6%. Then `CC(=O)N1CCN(C(=S)c2ccc(-c3ccc(Cl)cc3)o2)CC1`, with 9.21%. Then `COc1cc(C(=O)N2C[C@@H]3CCC[C@H]2C3)ccc1OC1CCN(C(C)=O)CC1`, with 22.9%; and `OCC1CCCN(C(=S)NCCc2ccccc2)C1` (stereo not drawn), with 5.71%.

Regarding `O=C(Cn1ccccc1=O)c1ccc(Cl)cc1`, the “hERG current change (%, negative = inhibition) at 1uM” value is recorded as 17.8%. Take `CCn1c(CC(=O)Nc2ccccc2)nnc1SCC(=O)Nc1ccccc1C(=O)OC`: the “hERG current change (%, negative = inhibition) at 1uM” value worked out at 15.1%. In the case of `O=C(CNC(=O)c1ccc(Br)cc1)NC1=NCCS1`, the “hERG current change (%, negative = inhibition) at 1uM” value stood at 10.3%.

Regarding `Cc1nnc(C)n1/N=C/c1ccccc1`, the “hERG current change (%, negative = inhibition) at 1uM” value worked out at 11.3%. In the case of `C=CCn1c(SCc2cccnc2)nnc1-c1ccncc1`, the “hERG current change (%, negative = inhibition) at 1uM” value was found to be 4.24%. Regarding `CC(C)C[C@@H](CSc1ccc(Br)cc1)N1CCN(CC(C)C)CCC1=O`, the “hERG current change (%, negative = inhibition) at 1uM” value is reported as -21.1%. For the molecule `Cc1oc(C(N)=O)nc1-c1ccccc1`, the “hERG current change (%, negative = inhibition) at 1uM” value came to 16.2%. Turning to `COc1cccc(CNC(=O)C2CCCN(S(=O)(=O)c3cnc[nH]3)C2)c1` (stereo not drawn), the “hERG current change (%, negative = inhibition) at 1uM” value is given as -4.42%.

As for `CC(=O)N1CCc2cc(S(=O)(=O)NC(C(=O)Nc3nc(C)cs3)C(C)C)ccc21` (stereo not drawn), the “hERG current change (%, negative = inhibition) at 1uM” value is 9.73%. Take `COc1ccccc1NC(=O)CSc1nncn1-c1ccccc1`: the “hERG current change (%, negative = inhibition) at 1uM” value was 14.8%. In the case of `Cc1ccc(/C=C2/C(=O)N=C(N)N2C)s1`, the “hERG current change (%, negative = inhibition) at 1uM” value stood at 9.03%. As to `C=CCNC(=S)NNC(=O)c1cc(-c2cccnc2)nc2ccccc12`, the “hERG current change (%, negative = inhibition) at 1uM” value amounted to 16.5%. Then `CCN(CC)C(=O)c1ccc2c(c1)N(Cc1ccccc1)C(=O)CS2=O` (stereo not drawn), with 9.17%; and `CCN1C(=O)CC(NNC(=O)c2ccc(Cl)cc2)C1=O` (stereo not drawn), with 13.5%. As for `O=C1CN=C(c2ccccc2)c2ccccc2N1Cc1ccc(C(F)(F)F)cc1`, the “hERG current change (%, negative = inhibition) at 1uM” value is listed as 3.04%. Then `O=C1NC(=S)NC(=O)C1C/C=C/c1ccccc1`, with 7.81%; and `CCS(=O)(=O)c1nc(S(=O)(=O)c2ccc(Cl)cc2)c(N2CCc3ccccc3C2)s1`, with 16.9%. Turning to `Cc1ccc(NC(=O)CSc2nn(-c3ccc(Cl)cc3)c(=S)s2)cc1S(=O)(=O)N(C)C`, the “hERG current change (%, negative = inhibition) at 1uM” value is given as 6.46%. For the molecule `CCN1CCN(CCCN(Cc2ccco2)C(=S)Nc2cc(Cl)ccc2C)CC1`, the “hERG current change (%, negative = inhibition) at 1uM” value is -10.5%.

As for `CC1Sc2ccc(S(=O)(=O)CCC(=O)N3CCc4ccccc43)cc2NC1=O` (stereo not drawn), the “hERG current change (%, negative = inhibition) at 1uM” value came out at 15.9%. Consider `CC(C)NS(=O)(=O)c1ccc(CCC(=O)O)cc1`, for which the “hERG current change (%, negative = inhibition) at 1uM” value was found to be 7.71%.

Turning to `Cc1cccc(C(=O)NN2C(=O)C3C(c4ccccc4)C=CC(c4ccccc4)C3C2=O)c1` (stereo not drawn), the “hERG current change (%, negative = inhibition) at 1uM” value is reported as -7.68%. Then `O=C(COC(=O)c1cc([N+](=O)[O-])ccc1N1CCOCC1)c1ccc(F)cc1`, with 4.23%.

In the case of `S=C(Nc1ccccc1Cl)N1CCN(c2ccccn2)CC1`, the “hERG current change (%, negative = inhibition) at 1uM” value was 15.5%. Then `CN(c1ccccc1)S(=O)(=O)c1cc(C(=O)c2nccn2C)ccc1Cl`, with 7.66%; and `O=C(Nc1ccc(Cl)c([N+](=O)[O-])c1)c1ccco1`, with 9.65%. For `Cc1cc(NC(=O)c2cccc([N+](=O)[O-])c2)no1` the value was 11.5%; for `COc1ccc(-c2[nH]nc3oc(=O)c(CCO)c(C)c23)cc1.O=C(O)C(=O)O`, 13.2%; for `CC[N+](CC)(CC(=O)Nc1c(C)cccc1C)Cc1ccccc1.O=C([O-])c1ccccc1`, 15.2%.

Take `O=C(Nc1cccc(Cl)c1Cl)c1ccc(-c2ccccc2)cc1`: the “hERG current change (%, negative = inhibition) at 1uM” value is 8.8%. As for `CCc1ccccc1N(CC(=O)NC1CCCCC1)C(=O)CCCC(=O)Nc1ccccn1`, the “hERG current change (%, negative = inhibition) at 1uM” value came to 2.25%. Then `CCN1CCc2c(OCc3ccccc3)cccc2C1=O`, with 2.81%; and `COC(=O)C1CCN(Cc2cn(Cc3ccccc3)nc2-c2cc3ccccc3o2)CC1`, with -33.8%.
